Measurements reported in PubChem BioAssay AID1347165 (National Center for Advancing Translational Sciences (NCATS), 2019).
Out of some 220,000 compounds screened, about 5,700 (2.6%) were called active. Inconclusive means that the source gave no clear call. Such entries were picked first, then a sample of the others. Calls come from the whole dose curve; as a rule, active = well fitted inhibition curve with a large enough effect; inconclusive = small, poorly fitted or top-dose-only effect; inactive = no such curve, though single readings can be large or run the other way. Where the call is inconclusive, the potency comes from a doubtful curve fit.

Each compound was assayed against Lysine-specific demethylase 5B (Homo sapiens) (UniProt Q9UGL1) (assay: Primary screen for KDM5B Histone Demethylases FDH-coupled qHTS). Conditions: FDH-coupled NADH fluorescence (FDH is formaldehyde dehydrogenase); activity change, negative = inhibition: at 57.7 µM (top of the series) unless noted.
Summary of the method: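 Here, H3K4me3 peptide (12.5 µM in substrate mix) is demethylated by KDM5BΔAP, 200 nM final, after 10 min compound exposure. Formaldehyde product is coupled through FDH (0.25 U/mL in mix) to NADH fluorescence; 30-min ΔRFU feeds dose-response curves.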
Note: nearly all actives have a fitted effect of over 70% in size.
Potency is the fitted concentration of half-maximal effect; tags give direction and shape of the fitted curve.
Throughout, for activity change, negative = inhibition: 0% is about no effect.

Chain of UniProt Q9UGL1 (Q9UGL1 whole entry, looked up): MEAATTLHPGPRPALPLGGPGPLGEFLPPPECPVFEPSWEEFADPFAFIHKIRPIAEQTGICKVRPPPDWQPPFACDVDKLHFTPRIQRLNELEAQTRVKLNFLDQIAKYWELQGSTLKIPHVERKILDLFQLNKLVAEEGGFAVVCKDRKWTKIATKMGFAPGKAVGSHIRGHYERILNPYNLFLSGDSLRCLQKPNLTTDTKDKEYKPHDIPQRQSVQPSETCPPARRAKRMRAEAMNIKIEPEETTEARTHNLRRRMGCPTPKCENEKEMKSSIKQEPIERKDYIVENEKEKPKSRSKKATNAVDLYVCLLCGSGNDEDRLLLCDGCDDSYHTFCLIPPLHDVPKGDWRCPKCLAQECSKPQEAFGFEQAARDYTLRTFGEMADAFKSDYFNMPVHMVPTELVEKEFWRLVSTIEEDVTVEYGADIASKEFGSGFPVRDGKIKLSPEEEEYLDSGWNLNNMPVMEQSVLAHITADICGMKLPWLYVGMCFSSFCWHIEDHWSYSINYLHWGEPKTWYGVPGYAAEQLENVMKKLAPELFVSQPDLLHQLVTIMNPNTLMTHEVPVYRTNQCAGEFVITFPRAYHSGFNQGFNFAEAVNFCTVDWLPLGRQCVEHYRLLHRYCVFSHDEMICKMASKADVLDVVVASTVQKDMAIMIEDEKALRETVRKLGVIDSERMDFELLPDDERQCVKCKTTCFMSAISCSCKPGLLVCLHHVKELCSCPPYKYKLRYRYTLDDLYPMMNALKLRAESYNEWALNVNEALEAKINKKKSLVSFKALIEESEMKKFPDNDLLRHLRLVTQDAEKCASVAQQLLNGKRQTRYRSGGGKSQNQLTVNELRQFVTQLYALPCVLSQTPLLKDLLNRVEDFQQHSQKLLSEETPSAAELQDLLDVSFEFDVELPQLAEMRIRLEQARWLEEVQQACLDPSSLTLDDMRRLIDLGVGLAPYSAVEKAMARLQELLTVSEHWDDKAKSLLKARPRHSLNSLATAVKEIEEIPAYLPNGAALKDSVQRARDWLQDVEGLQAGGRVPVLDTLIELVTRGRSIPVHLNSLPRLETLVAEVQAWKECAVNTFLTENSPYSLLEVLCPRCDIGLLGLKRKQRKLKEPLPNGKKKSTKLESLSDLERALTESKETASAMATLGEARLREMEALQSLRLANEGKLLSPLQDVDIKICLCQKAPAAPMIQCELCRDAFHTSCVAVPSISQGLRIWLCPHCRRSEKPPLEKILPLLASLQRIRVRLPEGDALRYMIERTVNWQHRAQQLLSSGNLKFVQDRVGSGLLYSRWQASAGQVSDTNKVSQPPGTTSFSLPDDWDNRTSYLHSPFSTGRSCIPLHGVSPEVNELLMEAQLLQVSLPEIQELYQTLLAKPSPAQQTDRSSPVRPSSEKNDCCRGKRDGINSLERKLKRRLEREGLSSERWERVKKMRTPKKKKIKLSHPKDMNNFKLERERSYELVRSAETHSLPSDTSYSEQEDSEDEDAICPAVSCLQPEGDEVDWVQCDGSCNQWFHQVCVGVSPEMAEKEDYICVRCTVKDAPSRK

Question: Which Potency does the source give for `Cc1ccc(O)c(NC(=O)c2cc(-c3ccccc3O)no2)c1` here?
Answer: The Potency was inconclusive: 28.2 µM [inhibitor, partial curve, poor fit].

Question: Which “activity change, negative = inhibition” value does the source give for `CC(C)(C)C(=O)Oc1ccc2c(=O)c(-c3ccccc3)coc2c1` here?
Answer: The value was inactive: -18.3%.

Question: For `CNC(=O)[C@@H](c1ccc(Cl)cc1)N1CCC[C@H]1C(=O)NC(C)C`, which Potency is on record?
Answer: Its Potency is inconclusive: 31.6 µM [inhibitor, single point].

Question: `COc1ccc(NC(=O)c2c(NC(=O)c3ccc(Br)cc3)sc3c2CCCC3)cc1` was tested. Which Potency did it give?
Answer: Its Potency is inconclusive: 44.7 µM [inhibitor, single point].

Question: With `CC(NC(=O)C12CC3CC(CC(C3)C1)C2)c1cc2ccccc2o1` (stereo not given) as the compound, how does the “activity change, negative = inhibition” value read?
Answer: The value was inactive: 1.95%.

Question: With `CC(C)CN1C(=O)CCc2cc(NC(=O)c3c(F)cccc3F)ccc21` as the compound, how does the “activity change, negative = inhibition” value read?
Answer: The value was inactive: -23.9%.

Question: With `CCOC(=O)N1CCN(Cc2nc3c(c(=O)[nH]c(=O)n3C)n2CCOC)CC1` as the compound, how does the “activity change, negative = inhibition” value read?
Answer: The value was inactive: 27.7%.

Question: How did the Potency turn out when `COc1ccc2c(C)c(CC(=O)NCCN3CCOCC3)c(=O)oc2c1` was run?
Answer: Its Potency is inconclusive: 25.1 µM [inhibitor, partial curve, poor fit].

Question: `COc1ccc(-c2nc(C)c(C)cc2C#N)c2cccnc12` was tested. Which Potency did it give?
Answer: Its Potency is active: 31.6 µM.

Question: With `COc1cc(C(=O)OCc2cccc(C#N)c2)cc(OC)c1C` as the compound, how does the “activity change, negative = inhibition” value read?
Answer: Its value is inactive: 3.55%.

Question: Which Potency does the source give for `CNc1ncc(C(=O)N2CCCC3(CCC(=O)N(CCOC)C3)C2)cn1` (stereo not given) here?
Answer: The Potency was active: 28.2 µM.

Question: How did the Potency turn out when `O=C(NCc1nnc2ccc(-c3ccc(Cl)cc3)nn12)c1cc(F)ccc1F` was run?
Answer: Its Potency is inconclusive: 15.8 µM [inhibitor, partial curve, poor fit].

Question: For `COc1cccc(/C=C(/C#N)C(=O)c2ccccc2)c1OC(F)F`, which Potency is on record?
Answer: The Potency was inconclusive: 25.1 µM [inhibitor, single point].

Question: Which Potency does the source give for `COc1ccccc1-c1ccnc(-c2nnc(C)n2-c2ccccc2)c1` here?
Answer: The Potency was inconclusive: 28.2 µM [inhibitor, partial curve, poor fit].

Question: Which “activity change, negative = inhibition” value does the source give for `Cc1ccc(NC(=O)CSc2nc3cc([N+](=O)[O-])ccc3o2)cc1C` here?
Answer: Its value is inactive: 0.0535%.

Question: `COCCc1noc([C@@H]2CN(Cc3ccccc3C#N)C[C@H]2CO)n1` was tested. Which “activity change, negative = inhibition” value did it give?
Answer: Its value is inactive: -3.17%.

Question: Which “activity change, negative = inhibition” value does the source give for `c1coc(CN2CC(Oc3ccc(-c4noc(C5CC5)n4)cc3)C2)c1` here?
Answer: Its value is inactive: 1.4%.

Question: Which Potency does the source give for `Cc1cc(C)c(NC(=O)C2=Cc3sc4c(c3CS2)CCCC4)c(C)c1` here?
Answer: The Potency was inconclusive: 39.8 µM [inhibitor, single point].

Question: Which “activity change, negative = inhibition” value does the source give for `Fc1ccc(CSc2nnc(-c3c[nH]c4ccccc34)n2C2CC2)c(Cl)c1` here?
Answer: Its value is inactive: 2.01%.

Question: How did the Potency turn out when `CC(=O)Oc1c(-c2ccc(NC(=O)C3CC3)cc2)c(-c2ccccc2F)nn1-c1ccccc1` was run?
Answer: The Potency was inconclusive: 28.2 µM [inhibitor, single point].

Question: Which Potency does the source give for `COc1ccccc1CNC(=O)c1cc2c(N(C)Cc3ccccc3)nc(C)cn2n1` here?
Answer: The Potency was active: 14.1 µM.

Question: Which Potency does the source give for `Cc1ccc(-c2nc3ccccc3c(=O)n2O)cc1` here?
Answer: Its Potency is inconclusive: 12.6 µM [inhibitor, partial curve, poor fit].

Question: How did the Potency turn out when `CCC(C)NC(=O)c1cccc(NC(=O)c2nsc3ccccc23)c1` (stereo not given) was run?
Answer: The Potency was inconclusive: 50.1 µM [inhibitor, single point].

Question: For `COCC1CN(C2CCC2)CC12CCN(C(=O)c1ccc(OC)nc1)CC2` (stereo not given), which Potency is on record?
Answer: Its Potency is inconclusive: 14.1 µM [inhibitor, partial curve].

Question: `O=C(c1ccc2cncn2c1)N1CCOCC1` was tested. Which Potency did it give?
Answer: The Potency was inconclusive: 31.6 µM [inhibitor, single point].

Question: For `Cc1ccccc1CN1Cc2nc(-c3cccc(C(N)=O)c3)ccc2OCC1=O`, which Potency is on record?
Answer: Its Potency is active: 31.6 µM.

Question: For `Cc1cc(C)n2cnnc2n1`, which Potency is on record?
Answer: The Potency was inconclusive: 25.1 µM [inhibitor, partial curve, poor fit].

Question: For `Cc1noc(/C=C/c2ccccc2F)c1S(=O)(=O)N1CCC(C(=O)N2CCOCC2)CC1`, which “activity change, negative = inhibition” value is on record?
Answer: The value was inactive: 11.3%.

Question: With `CCOC(=O)Nc1cccc(N2CCn3c(nc4ccccc43)C2)c1` as the compound, how does the Potency read?
Answer: Its Potency is inconclusive: 1.78 µM [inhibitor, partial curve, poor fit].

Question: For `CCCCN(CC)C(=O)Cn1ncc2c3ccccc3n(CCC)c2c1=O`, which Potency is on record?
Answer: Its Potency is inconclusive: 17.8 µM [inhibitor, partial curve, poor fit].

Question: With `COc1ccc(-n2cc(C(=O)NCc3ccccc3Cl)c3ccccc3c2=O)cc1` as the compound, how does the Potency read?
Answer: The Potency was inconclusive: 39.8 µM [inhibitor, single point].

Question: With `COc1ccc(S(=O)(=O)NC[C@@H]2C=C(C)[C@H](CC(=O)NCc3ccc(C#N)cc3)C[C@H]2C(C)C)cc1` as the compound, how does the Potency read?
Answer: The Potency was inconclusive: 35.5 µM [inhibitor, single point].

Question: For `Cc1ccc(CN2CCN(C(=O)c3ccc4c(c3)C(O)CCCCCN4C)CC2)cc1` (stereo not given), which Potency is on record?
Answer: Its Potency is inconclusive: 28.2 µM [inhibitor, partial curve, poor fit].

Question: With `Cc1ccc(CNC(=O)c2ccc(CSCc3ccccc3C)o2)cc1` as the compound, how does the Potency read?
Answer: The Potency was inconclusive: 35.5 µM [inhibitor, single point].

Question: For `COc1ccc(-c2nc3ccc(NS(=O)(=O)c4ccc(Cl)cc4)cc3o2)cc1`, which Potency is on record?
Answer: The Potency was inconclusive: 17.8 µM [inhibitor, partial curve, poor fit].

Question: How did the “activity change, negative = inhibition” value turn out when `COC(=O)CNC(=O)C1CCc2nnc(CNC(=O)Nc3cccnc3)n21` (stereo not given) was run?
Answer: The value was inactive: 0.987% [at 115 µM].

Question: How did the “activity change, negative = inhibition” value turn out when `Cc1cc(NC(=O)COc2ccccc2C(=O)c2cc(C#N)c(=O)n(C(C)C)c2)ccc1N1CCCC1` was run?
Answer: The value was inactive: -2.54%.

Question: `Cc1cccc(N2C(N)=C(C#N)C3(C(=O)N(Cc4cccc(F)c4)c4ccccc43)C3=C2COC3=O)c1` (stereo not given) was tested. Which Potency did it give?
Answer: Its Potency is inconclusive: 39.8 µM [inhibitor, single point].

Question: How did the “activity change, negative = inhibition” value turn out when `CCOC(=O)c1ccc(NC2SC(=O)N(Cc3cccc(C(=O)O)c3)C2=O)cc1` (stereo not given) was run?
Answer: Its value is inactive: -16.1%.

Question: `CC1(C(=O)NCC2CCCO2)CCc2cnc(NCc3ccccc3)nc21` (stereo not given) was tested. Which Potency did it give?
Answer: The Potency was active: 39.8 µM.

Question: `Cc1nn(-c2ccc(F)cc2)c2nc(N)c(C#N)c(-c3ccc(O)c(O)c3)c12` was tested. Which Potency did it give?
Answer: The Potency was inconclusive: 31.6 µM [inhibitor, partial curve, poor fit].

Question: How did the “activity change, negative = inhibition” value turn out when `CC(C)(C)c1cc(CC2(NCc3ccc(OC(F)(F)F)cc3)COC2)no1` was run?
Answer: The value was inactive: 16.3% [at 86.2 µM].

Question: With `FC(F)(F)c1nc(SCc2ccc(Cl)cc2Cl)n[nH]1` as the compound, how does the “activity change, negative = inhibition” value read?
Answer: Its value is inactive: -17.9%.

Question: Which Potency does the source give for `Cc1ccc2c(Cl)cc(Cl)c(OCC(=O)N3CCCCCC3)c2n1` here?
Answer: The Potency was inconclusive: 31.6 µM [inhibitor, single point].

Question: For `COCCNc1nc2c([S+](=O)([O-])c3ccc(OC)cc3)nnn2c2ccccc12`, which Potency is on record?
Answer: The Potency was inconclusive: 3.55 µM [inhibitor, full curve].
